According to paper PMC11149917, “Translational and Therapeutic Evaluation of RAS-GTP Inhibition by RMC-6236 in RAS-Driven Cancers” (Cancer Discovery, 2024):
Values joined by “and” are separate entries in the source; they are usually repeats but may differ in a detail not shown here. Equal entries are not always repeated. The source gives many values for each of these; only a part stands here.

Test system: DUSP6 mRNA in Capan-2 xenograft tumors
Experiment: In vivo PD by DUSP6 qPCR and PK/PD relationship
Parameters: species or system mouse
Procedure: Tumor-bearing animals were randomized and assigned into groups (n = 1–10/group). The vehicle at 10 mL/kg or RMC-6236 at indicated doses was administered via oral gavage daily, and animals were treated for 28 days, or up to 90 days if PFS was being assessed. […] For single-dose PKPD study, mice were randomized and assigned into groups (n = 3/dose/time point). A single dose of RMC-6236 was administered orally at either 3, 10, or 25 mg/kg. Blood and tissues, including the tumor, brain, colon, ear skin, and muscle, were harvested at indicated time points. Whole blood was collected in K2EDTA Microtainer tubes, incubated for 5 minutes, and snap-frozen in liquid nitrogen. The tissue was either fixed in 10% formalin or snap-frozen in liquid nitrogen for further analysis.
RNA was extracted from at least 20 mg of tissue using an RNeasy Mini Kit (Qiagen, 74104) and a High-Throughput Tissue grinder following the manufacturer's protocol. Reverse transcription was carried out using High-Capacity cDNA Reverse Transcription Kit (ABI, 4368814) according to the manufacturer's protocol. The cDNA product was used for qPCR analysis using TaqMan Gene-Expression Master Mix (ABI, 4369016). TaqMan primer probes specific to DUSP6 (human—Hs00737962_m1, murine—Mm00518185_m1, FAM-MGB) and 18S (RNA18S1; human—Hs99999901_s1, murine—Mm03928990_g1, FAM-MGB, used as an internal control gene) were used to detect the levels from each sample in duplicates using a 10 µL final reaction volume in a 384-well clear optical reaction plate. For qPCR, Ct values of DUSP6 and 18S were obtained for analysis. DUSP6 Ct value was normalized to 18S, and then the mean relative mRNA expression levels of each group were normalized to the vehicle control group. Values were plotted as relative change in mRNA expression compared with vehicle. Means ± SEM were shown.
Concentrations of RMC-6236 in tumor or normal tissues and percentage of DUSP6 inhibition as compared with the vehicle control from individual animals were collected and analyzed post a single dose of RMC-6236 ranging from 0.3 to 100 mg/kg (Supplementary Table S6). A 3-parameter sigmoidal exposure–response model was fitted to the data in GraphPad Prism to derive EC50 and EC90 values.

CCn1c(-c2cc(N3CCN(C)CC3)cnc2[C@H](C)OC)c2c3cc(ccc31)-c1csc(n1)C[C@H](NC(=O)[C@H]1C[C@@H]1C)C(=O)N1CCC[C@H](N1)C(=O)OCC(C)(C)C2 [RMC-6236]
% inhibition of DUSP6 vs control (Capan-2, study Capan-2 #3_PHA 2020, 10 mg/kg, 24h): 92.6008%
% inhibition of DUSP6 vs control (Capan-2, study Capan-2 #3_PHA 2023, 3 mg/kg, 8h): 93.234% and 85.4464% and 92.7985%
% inhibition of DUSP6 vs control (Capan-2, study Capan-2 #3_PHA 2023, 10 mg/kg, 8h): 98.5776% and 98.8039% and 97.1847%
% inhibition of DUSP6 vs control (Capan-2, study Capan-2 #3_PHA 2023, 25 mg/kg, 8h): 99.4323% and 98.6775% and 98.783%
% inhibition of DUSP6 vs control (Capan-2, study Capan-2 #3_PHA 2023, 50 mg/kg, 8h): 98.6308% and 99.0149% and 99.3364%
% inhibition of DUSP6 vs control (Capan-2, study Capan-2 #3_PHA 2023, 100 mg/kg, 8h): 99.0285%
